Results as given in the supplement of paper PMC11741623.
Some of the results follow. Interaction screen of human proteins with wild-type SARS-CoV-2 proteins by split-DHFR complementation in yeast, 1 µg/mL methotrexate. Value = fitness of the pair (three or more lineages) minus that of the viral protein without a human partner, on a scale set by negative (0) and fused positive (1) controls, mean of up to three cultures; higher = more likely to interact. Active = false discovery rate below 0.05 (one-sided t-test) in at least one culture. Nearly all pairs are not hits, and differences among them are mostly noise (correlation between cultures about 0.3); most hits were seen in one culture only. Human sequences are the Swiss-Prot entries looked up by gene name; the clone may be another isoform. NSP2 values were corrected by the authors for a growth advantage. Listed are human proteins with a hit and a random twelfth of the others.

B1: TNFSF14, O43557 (protein)
chain: MEESVVRPSVFVVDGQTDIPFTRLGRSHRRQSCSVARVGLGLLLLLMGAGLAVQGWFLLQLHWRLGEMVTRLPDGPAGSWEQLIQERRSHEVNPAAHLTGANSSLTGSGGPLLWETQLGLAFLRGLSYHDGALVVTKAGYYYIYSKVQLGGVGCPLGLASTITHGLYKRTPRYPEELELLVSQQSPCGRATSSSRVWWDSSFLGGVVHLEAGEKVVVRVLDERLVRLRDGTRSYFGAFMV
B2: C12orf65, Q9H3J6 (protein)
chain: MSTVGLFHFPTPLTRICPAPWGLRLWEKLTLLSPGIAVTPVQMAGKKDYPALLSLDENELEEQFVKGHGPGGQATNKTSNCVVLKHIPSGIVVKCHQTRSVDQNRKLARKILQEKVDVFYNGENSPVHKEKREAAKKKQERKKRAKETLEKKKLLKELWESSKKVH

biological target: SARS-CoV-2 M; assay: yeast fitness gain over the viral ORF with no human partner (scaled fitness); higher = more likely to interact
Experimental: (§1)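 Split mouse DHFR complementation in pooled diploid yeast: human ORFeome clones carry one fragment and viral ORFs the other; barcoded lineages compete in 1 µg/mL methotrexate and fitness is read by barcode sequencing in up to three cultures.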

How did the yeast fitness gain turn out when B1 was run?
The yeast fitness gain was inactive: -0.0215.

How did the yeast fitness gain turn out when B2 was run?
Its yeast fitness gain is inactive: 0.0179.

biological target: SARS-CoV-2 N; assay: as above
Experimental: as §1

For B1, which yeast fitness gain is on record?
The yeast fitness gain was inactive: -0.0637.

biological target: SARS-CoV-2 NSP1; assay: as above
Experimental: as §1

Which yeast fitness gain does the source give for B1 here?
Its yeast fitness gain is inactive: 0.0869.

B2 was tested. Which yeast fitness gain did it give?
Its yeast fitness gain is inactive: 0.0774.

biological target: SARS-CoV-2 NSP10; assay: as above
Experimental: as §1

With B1 as the binder, how does the yeast fitness gain read?
The yeast fitness gain was inactive: -0.0422.

With B2 as the binder, how does the yeast fitness gain read?
The yeast fitness gain was inactive: 0.0181.

biological target: SARS-CoV-2 NSP12; assay: as above
Experimental: as §1

With B1 as the binder, how does the yeast fitness gain read?
The yeast fitness gain was inactive: -0.00648.

How did the yeast fitness gain turn out when B2 was run?
The yeast fitness gain was inactive: 0.0914.

biological target: SARS-CoV-2 NSP13; assay: as above
Experimental: as §1

How did the yeast fitness gain turn out when B1 was run?
Its yeast fitness gain is inactive: -0.0701.

With B2 as the binder, how does the yeast fitness gain read?
The yeast fitness gain was inactive: 0.0376.

biological target: SARS-CoV-2 NSP15; assay: as above
Experimental: as §1

With B1 as the binder, how does the yeast fitness gain read?
The yeast fitness gain was inactive: 0.0155.

With B2 as the binder, how does the yeast fitness gain read?
The yeast fitness gain was inactive: 0.0327.

biological target: SARS-CoV-2 NSP16; assay: as above
Experimental: as §1

Which yeast fitness gain does the source give for B1 here?
Its yeast fitness gain is inactive: -0.0798.

With B2 as the binder, how does the yeast fitness gain read?
The yeast fitness gain was inactive: -0.00554.

biological target: SARS-CoV-2 NSP2; assay: as above
Experimental: as §1

Which yeast fitness gain does the source give for B1 here?
Its yeast fitness gain is inactive: -0.211.

B2 was tested. Which yeast fitness gain did it give?
The yeast fitness gain was inactive: -0.0935.

biological target: SARS-CoV-2 NSP5; assay: as above
Experimental: as §1

With B1 as the binder, how does the yeast fitness gain read?
The yeast fitness gain was inactive: 0.00598.

Which yeast fitness gain does the source give for B2 here?
Its yeast fitness gain is inactive: 0.0468.

biological target: SARS-CoV-2 NSP6; assay: as above
Experimental: as §1

B1 was tested. Which yeast fitness gain did it give?
Its yeast fitness gain is inactive: -0.151.

B2 was tested. Which yeast fitness gain did it give?
The yeast fitness gain was inactive: -0.0186.

biological target: SARS-CoV-2 ORF10; assay: as above
Experimental: as §1

With B1 as the binder, how does the yeast fitness gain read?
Its yeast fitness gain is inactive: 0.0218.

For B2, which yeast fitness gain is on record?
The yeast fitness gain was inactive: -0.00152.

biological target: SARS-CoV-2 ORF3A; assay: as above
Experimental: as §1

For B1, which yeast fitness gain is on record?
The yeast fitness gain was inactive: -0.0608.

How did the yeast fitness gain turn out when B2 was run?
Its yeast fitness gain is inactive: -0.0226.

biological target: SARS-CoV-2 ORF3B; assay: as above
Experimental: as §1

How did the yeast fitness gain turn out when B1 was run?
The yeast fitness gain was inactive: -0.115.

For B2, which yeast fitness gain is on record?
Its yeast fitness gain is inactive: 0.00408.

biological target: SARS-CoV-2 ORF6; assay: as above
Experimental: as §1

With B1 as the binder, how does the yeast fitness gain read?
Its yeast fitness gain is inactive: -0.0356.

For B2, which yeast fitness gain is on record?
Its yeast fitness gain is inactive: 0.0159.

biological target: SARS-CoV-2 ORF7B; assay: as above
Experimental: as §1

With B1 as the binder, how does the yeast fitness gain read?
The yeast fitness gain was inactive: -0.071.

Which yeast fitness gain does the source give for B2 here?
Its yeast fitness gain is inactive: 0.0612.

biological target: SARS-CoV-2 ORF8; assay: as above
Experimental: as §1

With B1 as the binder, how does the yeast fitness gain read?
The yeast fitness gain was inactive: 0.013.

B2 was tested. Which yeast fitness gain did it give?
Its yeast fitness gain is inactive: 0.0441.

biological target: SARS-CoV-2 ORF9B; assay: as above
Experimental: as §1

How did the yeast fitness gain turn out when B1 was run?
Its yeast fitness gain is inactive: -0.027.

How did the yeast fitness gain turn out when B2 was run?
The yeast fitness gain was inactive: -0.0269.

biological target: SARS-CoV-2 S; assay: as above
Experimental: as §1

B1 was tested. Which yeast fitness gain did it give?
Its yeast fitness gain is inactive: -0.0571.

With B2 as the binder, how does the yeast fitness gain read?
Its yeast fitness gain is inactive: 0.0657.

biological target: SARS-CoV-2 NSP14; assay: as above
Experimental: as §1

Which yeast fitness gain does the source give for B2 here?
The yeast fitness gain was inactive: 0.155.

biological target: SARS-CoV-2 NSP4; assay: as above
Experimental: as §1

How did the yeast fitness gain turn out when B2 was run?
The yeast fitness gain was inactive: 0.0321.

biological target: SARS-CoV-2 NSP7; assay: as above
Experimental: as §1

How did the yeast fitness gain turn out when B2 was run?
The yeast fitness gain was inactive: 0.00273.

biological target: SARS-CoV-2 NSP8; assay: as above
Experimental: as §1

With B2 as the binder, how does the yeast fitness gain read?
Its yeast fitness gain is inactive: -0.106.

biological target: SARS-CoV-2 NSP9; assay: as above
Experimental: as §1

B2 was tested. Which yeast fitness gain did it give?
Its yeast fitness gain is inactive: 0.0541.

biological target: SARS-CoV-2 ORF7A; assay: as above
Experimental: as §1

With B2 as the binder, how does the yeast fitness gain read?
Its yeast fitness gain is inactive: 0.0431.

biological target: SARS-CoV-2 ORF9Bwu (the 73-codon ORF); assay: as above
Experimental: as §1

For B2, which yeast fitness gain is on record?
Its yeast fitness gain is inactive: -0.0495.
